Experimental data published in the supplement of paper PMC8728848.
This is one part of the list.

Assays:
Assay in all cases: glycan array binding signal (z-score within array); higher = stronger binding
Settings in all cases: glycan notation: IUPAC condensed, linker removed
[1] = biological target: Neu5Ac(a2-3)Gal(b1-3)[Fuc(a1-4)]GlcNAc
Summary of the method: (§1)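 Columns mapping to the same glycan were averaged after glycan names were converted to IUPAC-condensed notation. The data come from 3228 arrays in the Consortium for Functional Glycomics database, limited to those with an available protein sequence. Binding is reported as a within-array Z-score averaged across arrays of one protein sequence and across linkers.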

[2] = biological target: Neu5Ac(a2-3)Gal(b1-3)[Fuc(a1-4)]GlcNAc(b1-3)Gal(b1-3)[Fuc(a1-4)]GlcNAc
Summary of the method: as §1

[3] = biological target: Neu5Ac(a2-3)Gal(b1-3)[Fuc(a1-4)]GlcNAc(b1-3)Gal(b1-4)[Fuc(a1-3)]GlcNAc
Summary of the method: as §1

[4] = biological target: Neu5Ac(a2-3)Gal(b1-3)[GlcNAc(b1-6)]GalNAc
Summary of the method: as §1

[5] = biological target: Neu5Ac(a2-3)Gal(b1-3)[Neu5Ac(a2-6)]GalNAc
Summary of the method: as §1

[6] = biological target: Neu5Ac(a2-3)Gal(b1-3)[Neu5Ac(a2-6)]GlcNAc(b1-3)[Fuc(a1-3)[Gal(b1-4)]GlcNAc(b1-6)]Gal(b1-4)Glc
Summary of the method: as §1

[7] = biological target: Neu5Ac(a2-3)Gal(b1-3)]Neu5Ac(a2-3)Gal(b1-4)]GlcNAc
Summary of the method: as §1

[8] = biological target: Neu5Ac(a2-3)Gal(b1-4)Glc
Summary of the method: as §1

[9] = biological target: Neu5Ac(a2-3)Gal(b1-4)GlcNAc
Summary of the method: as §1

[10] = biological target: Neu5Ac(a2-3)Gal(b1-4)GlcNAc(b1-2)Man
Summary of the method: as §1

[11] = biological target: Neu5Ac(a2-3)Gal(b1-4)GlcNAc(b1-2)Man(a1-3)[GlcNAc(b1-4)][Neu5Ac(a2-3)Gal(b1-4)GlcNAc(b1-2)Man(a1-6)]Man(b1-4)GlcNAc(b1-4)GlcNAc
Summary of the method: as §1

[12] = biological target: Neu5Ac(a2-3)Gal(b1-4)GlcNAc(b1-2)Man(a1-3)[Neu5Ac(a2-3)Gal(b1-4)GlcNAc(b1-2)Man(a1-6)]Man(b1-4)GlcNAc(b1-4)GlcNAc
Summary of the method: as §1

[13] = biological target: Neu5Ac(a2-3)Gal(b1-4)GlcNAc(b1-2)Man(a1-3)[Neu5Ac(a2-3)Gal(b1-4)GlcNAc(b1-2)Man(a1-6)]Man(b1-4)GlcNAc(b1-4)[Fuc(a1-6)]GlcNAc
Summary of the method: as §1

[14] = biological target: Neu5Ac(a2-3)Gal(b1-4)GlcNAc(b1-2)Man(a1-3)[Neu5Ac(a2-6)Gal(b1-4)GlcNAc(b1-2)Man(a1-6)]Man(b1-4)GlcNAc(b1-4)GlcNAc
Summary of the method: as §1

[15] = biological target: Neu5Ac(a2-3)Gal(b1-4)GlcNAc(b1-2)[Neu5Ac(a2-3)Gal(b1-4)GlcNAc(b1-4)]Man(a1-3)[GlcNAc(b1-4)][Neu5Ac(a2-3)Gal(b1-4)GlcNAc(b1-2)[Neu5Ac(a2-3)Gal(b1-4)GlcNAc(b1-6)]Man(a1-6)]Man(b1-4)GlcNAc(b1-4)GlcNAc
Summary of the method: as §1

[16] = biological target: Neu5Ac(a2-3)Gal(b1-4)GlcNAc(b1-2)[Neu5Ac(a2-3)Gal(b1-4)GlcNAc(b1-4)]Man(a1-3)[GlcNAc(b1-4)][Neu5Ac(a2-3)Gal(b1-4)GlcNAc(b1-4)Man(a1-6)]Man(b1-4)GlcNAc(b1-4)GlcNAc
Summary of the method: as §1

[17] = biological target: Neu5Ac(a2-3)Gal(b1-4)GlcNAc(b1-2)[Neu5Ac(a2-3)Gal(b1-4)GlcNAc(b1-6)]Man(a1-6)[Neu5Ac(a2-3)Gal(b1-4)GlcNAc(b1-2)Man(a1-3)]Man(b1-4)GlcNAc(b1-4)GlcNAc
Summary of the method: as §1

[18] = biological target: Neu5Ac(a2-3)Gal(b1-4)GlcNAc(b1-2)[Neu5Ac(a2-3)Gal(b1-4)GlcNAc(b1-6)]Man(a1-6)[Neu5Ac(a2-3)Gal(b1-4)GlcNAc(b1-2)Man(a1-3)][GlcNAc(b1-4)]Man(b1-4)GlcNAc(b1-4)GlcNAc
Summary of the method: as §1

[19] = biological target: Neu5Ac(a2-3)Gal(b1-4)GlcNAc(b1-3)Gal
Summary of the method: as §1

[20] = biological target: Neu5Ac(a2-3)Gal(b1-4)GlcNAc(b1-3)Gal(b1-3)GlcNAc
Summary of the method: as §1

[21] = biological target: Neu5Ac(a2-3)Gal(b1-4)GlcNAc(b1-3)Gal(b1-4)GlcNAc
Summary of the method: as §1

[22] = biological target: Neu5Ac(a2-3)Gal(b1-4)GlcNAc(b1-3)Gal(b1-4)GlcNAc(b1-2)Man(a1-3)[Neu5Ac(a2-3)Gal(b1-4)GlcNAc(b1-3)Gal(b1-4)GlcNAc(b1-2)Man(a1-6)]Man(b1-4)GlcNAc(b1-4)GlcNAc
Summary of the method: as §1

[23] = biological target: Neu5Ac(a2-3)Gal(b1-4)GlcNAc(b1-3)Gal(b1-4)GlcNAc(b1-3)Gal(b1-4)GlcNAc
Summary of the method: as §1

[24] = biological target: Neu5Ac(a2-3)Gal(b1-4)GlcNAc(b1-3)Gal(b1-4)GlcNAc(b1-3)Gal(b1-4)GlcNAc(b1-2)Man(a1-3)[Neu5Ac(a2-3)Gal(b1-4)GlcNAc(b1-3)Gal(b1-4)GlcNAc(b1-3)Gal(b1-4)GlcNAc(b1-2)Man(a1-6)]GalNAc
Summary of the method: as §1

[25] = biological target: Neu5Ac(a2-3)Gal(b1-4)GlcNAc(b1-3)Gal(b1-4)GlcNAc(b1-3)GalNAc
Summary of the method: as §1

[26] = biological target: Neu5Ac(a2-3)Gal(b1-4)GlcNAc(b1-3)Gal(b1-4)GlcNAc(b1-3)[Neu5Ac(a2-3)Gal(b1-4)GlcNAc(b1-3)Gal(b1-4)GlcNAc(b1-6)]GalNAc
Summary of the method: as §1

[27] = biological target: Neu5Ac(a2-3)Gal(b1-4)GlcNAc(b1-3)Gal(b1-4)GlcNAc(b1-6)[Gal(b1-3)]GalNAc
Summary of the method: as §1

[28] = biological target: Neu5Ac(a2-3)Gal(b1-4)GlcNAc(b1-3)Gal(b1-4)[Fuc(a1-3)]GlcNAc
Summary of the method: as §1

[29] = biological target: Neu5Ac(a2-3)Gal(b1-4)GlcNAc(b1-3)GalNAc
Summary of the method: as §1

[30] = biological target: Neu5Ac(a2-3)Gal(b1-4)GlcNAc(b1-3)[Neu5Ac(a2-3)Gal(b1-4)GlcNAc(b1-6)]GalNAc
Summary of the method: as §1

B1: Arath Fbox LD (Arabidopsis thaliana) (protein)
chain: EFSVWLEKASGKRCLMLSAMNLSIIWGDNPQYWQWIPIPESRFEKVAKLRDVCWFEIRGRTNTRVLSPRTRYSAYIVFKGVDKCYGFQNVAIEAAVGVVGQEPSRRLICFSEAIRRGRRNVVKPKQREDGWMEIELGEFFNDGGIMDNDEIEMSALETKQLNRKCGLIIQGIEIRPAKILAAASFLEQKLISEEDLNSAVDHHHHHH
- glycan array binding signal (z-score) [1]: -0.55
- glycan array binding signal (z-score) [2]: -0.44
- glycan array binding signal (z-score) [3]: -0.507
- glycan array binding signal (z-score) [4]: -0.633
- glycan array binding signal (z-score) [5]: -0.264
- glycan array binding signal (z-score) [6]: -0.662
- glycan array binding signal (z-score) [7]: -0.103
- glycan array binding signal (z-score) [8]: -0.473
- glycan array binding signal (z-score) [9]: -0.468
- glycan array binding signal (z-score) [10]: 0.253
- glycan array binding signal (z-score) [11]: -0.488
- glycan array binding signal (z-score) [12]: -0.175
- glycan array binding signal (z-score) [13]: -0.554
- glycan array binding signal (z-score) [14]: -0.487
- glycan array binding signal (z-score) [15]: -0.279
- glycan array binding signal (z-score) [16]: -0.391
- glycan array binding signal (z-score) [17]: -0.147
- glycan array binding signal (z-score) [18]: -0.407
- glycan array binding signal (z-score) [19]: 0.044
- glycan array binding signal (z-score) [20]: -0.462
- glycan array binding signal (z-score) [21]: -0.587
- glycan array binding signal (z-score) [22]: -0.462
- glycan array binding signal (z-score) [23]: -0.482
- glycan array binding signal (z-score) [24]: -0.519
- glycan array binding signal (z-score) [25]: -0.37
- glycan array binding signal (z-score) [26]: -0.631
- glycan array binding signal (z-score) [27]: -0.439
- glycan array binding signal (z-score) [28]: -0.548
- glycan array binding signal (z-score) [29]: -0.605
- glycan array binding signal (z-score) [30]: -0.595
